No constants are given. Whether binding was seen depends on the method and setting. Some results given as binding are weak or reduced against the parent protein; the word gives no strength.

The chains behind the UniProt entries cited, without tags or fusion partners.
UniProt Q15691: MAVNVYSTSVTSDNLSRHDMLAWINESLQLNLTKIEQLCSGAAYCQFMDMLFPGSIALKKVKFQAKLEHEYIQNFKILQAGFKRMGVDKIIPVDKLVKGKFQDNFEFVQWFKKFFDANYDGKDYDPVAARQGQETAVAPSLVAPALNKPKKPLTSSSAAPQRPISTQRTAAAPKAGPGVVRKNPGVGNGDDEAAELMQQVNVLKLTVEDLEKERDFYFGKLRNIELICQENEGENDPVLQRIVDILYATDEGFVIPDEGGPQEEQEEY

Here are results for 1 molecule from article PMC9926122.

In this test the target is 2H-15N-labeled EB1 (human) (UniProt Q15691). The test is described as follows: NMR titration; 15N-1H TROSY at 700 MHz; Ska1 peptide from 0.5 to 65 uM added to 95 uM 2H-15N-labeled EB1 in 50 mM potassium phosphate, 300 mM KCl, 1 mM DTT, 10% D2O, pH 6.8; both purified.

In the case of KENVPSHLPQVTVT (acetylated N-terminus) [Ska1 SHLP peptide (Ska1 p)], the binding entry is listed as “binds”.
